The source gives no read counts; variants with many changes may rest on few reads.

The values below come from the RNAGym collection of RNA variant scans (doi:10.7554/elife.90254).

First the molecules themselves.
B1: LINE1-mini (parent)
chain: GGCAGAGCUCAACACAGCGUGGCAAAGUGGCUGUGGCUAGACUGCC

The variants in this data set derive from B1. As to the kind of experiment: self-cleavage, relative activity (ratio to wild type); higher = more cleavage; in vitro, sequencing; the parent is a self-cleaving ribozyme.
Take GGCAGAGCUCUACACAGCGUGCCGAAGUGGCUGUGGCUAGACUGCC [A11U G22C A24G]: the self-cleavage came out at 0.09. As for GGCAGAGCUCUACACAGCUUGGCCAAGUGGCUGUGGCUAAAAUGCC [A11U G19U A24C G40A C42A], the self-cleavage stood at 0.01. Then GGCAGAGCUCUACACAACGUGGCAAAGUGGAUGGGGCUAGACUGCC [A11U G17A C31A U34G], with 0. With GGCAGAGCUCUACACAGCGUGGGGAAGUGGAUGUGGCUAGGCUGCC [A11U C23G A24G C31A A41G], the self-cleavage is 0. For GGCAGAGCUCUACAGAGCGUGGCAAAGUGGAUGUGGCUAGCCUGCA [A11U C15G C31A A41C C46A] the value was 0.01; for GGCAGAGCUCUACACAGCGUGGCCAAGUGGCGGUGGCUAGACUGCC [A11U A24C U32G], 0.03; for GGCAGAGCUCUACACAGUGUGGCAAAGUGGCUGUGACUAGAAUGCC [A11U C18U G36A C42A], 0.02. On to GGCAGAGCUCUACACAGCGUGGCACAGUGGCUGGGGCUAGACUGCC [A11U A25C U34G], for which the self-cleavage worked out at 0.03.

On to GGCAGAGCUCUACACAGCGUGGCAAAGUGGCUUUGGCUCGACUGAC [A11U G33U A39C C45A], for which the self-cleavage amounted to 0.01. As to GGCAGAGCUCUACACAGCGUGGCAAGGUGGCUGUCGCUAGGCUGCC [A11U A26G G35C A41G], the self-cleavage amounted to 0. Consider GGCAGAGCUCACCACAGCGUGGCAUUGUGGCUGUGGUUAGACUGCC [A12C A25U A26U C37U], for which the self-cleavage was found to be 0.01. With GGCAGAGCUCUACACAGCGCGGCAAAGUGGCUGUGGCUAUACUGCC [A11U U20C G40U], the self-cleavage worked out at 0.05.

As to GGCAGAGCUCUACACAGCGUGGCAAUGUAGCUGUGGUUAGACUGCC [A11U A26U G29A C37U], the self-cleavage came out at 0.02. For GGCAGAGCUCUACAUACCGGGGCAAAGUGGUUGUGGCUAGACUGCG [A11U C15U G17C U20G C31U C46G] the value was 0.03; for GGCAGAGCUCACAGCAGCGUGGCAAAGUGGCUGGGGCUAGACUGCC [A12C C13A A14G U34G], 0.01.

As to GGCAGAGCUCUACACUGCGUGGCAAAGUGGCUGUGGCUAGAAUGCU [A11U A16U C42A C46U], the self-cleavage came to 0.01. Turning to GGCAGAGCUCUACACAGCGUGGCAGAGUGGCUGGAGCUAGACUGCC [A11U A25G U34G G35A], the self-cleavage stood at 0.03. On to GGCAGAGCUCUACACAGCGUGGCACAGAGGCUGUGGCUAGACUGCC [A11U A25C U28A], for which the self-cleavage was 0.01. As for GGCAGAGCUCUACACAGCGUGGCAAAGUGGCUGUGACUAGACUGAC [A11U G36A C45A], the self-cleavage is 0.01. With GGCAGAGCUCACCCCAGCGUAGCAAAGUGGCUGUGGCAAGACUUCC [A12C A14C G21A U38A G44U], the self-cleavage stood at 0.02. Regarding GGCAGAGCUCUACACAGCGUGGCAAAGUUGAUGUGGCUAGACUGCC [A11U G29U C31A], the self-cleavage is 0.06. Then GGCAGAGCUCUACACAGCGUGGCACAGUGGCUGUGGCUAGCCUGUC [A11U A25C A41C C45U], with 0.01; and GGCAGAGCUCUACACAGCGUGGUAAAGUGGCUGUAGCUAGACUGCC [A11U C23U G35A], with 0; and GGCAGAGCUCUACACAGCGUGGCAAAGUGCCCGUGGCUCGACUGCC [A11U G30C U32C A39C], with 0.02. For the variant GGCAGAGCUCUACACAGCGUAGCAGAGUGGCUGUGGCUAGACUGCC [A11U G21A A25G], the self-cleavage was 0.31. In the case of GGCAGAGCUCACCGCGGCGUGGCAAUGUGGCUGUGGCUAAACUGCC [A12C A14G A16G A26U G40A], the self-cleavage amounted to 0.24. Then GGCAGAGCUCACCACAGCGUGGCAGAGUCGCUGUGGCUAGACCGCC [A12C A25G G29C U43C], with 0; and GGCAGAGCUCUACACAGCGUGGCAAAGUGGCUGUGGCACGACUGCC [A11U U38A A39C], with 0.11; and GGCAGAGCUCUACACAGCGUGGCAAAGUGGCUGUGGCCAGACUGUC [A11U U38C C45U], with 0.02. For GGCAGAGCUCUACACAGCGUGGGAAAGUGGCUGUGGCUAGACGGCC [A11U C23G U43G], the self-cleavage was determined as 0. GGCAGAGCUCUACACAGCGAGGCAGAGUGGCUGUGGCUAGACUCCC [A11U U20A A25G G44C]: the self-cleavage was determined as 0.03. With GGCAGAGCUCUACACAGCGUGGCAUAGUGGCAGCGGCUAGAUUGCC [A11U A25U U32A U34C C42U], the self-cleavage amounted to 0.03. On to GGCAGAGCUCACAACAGCGUGGCAACGUGGCUGUUGCUAGACUGCC [A12C C13A A26C G35U], for which the self-cleavage worked out at 0.05. GGCAGAGCUCUACACAGCAUGGCAAAGUGGCUGUGGCUAAACUGCC [A11U G19A G40A]: the self-cleavage was found to be 0.01. For GGCAGAGCUCUAUACAGCGUGGCAAAUUGGCUGCGGCUAGACUGCC [A11U C13U G27U U34C] the value was 0.02. For GGCAGAGCUCUACACAGCCUGGCAAAGAGGUUGUGGCUAGACUGCC [A11U G19C U28A C31U], the self-cleavage came to 0.03. Then GGCAGAGCUCACCGCAGCGUGGCAAAGUGGCUGUCGCUAGACUGCC [A12C A14G G35C], with 0.11; and GGCAGAGCUCACCACGGCGUUGCAAAGUGGCUGUGGCUAGACUGCC [A12C A16G G21U], with 0.02; and GGCAGAGCUCUACACAGCGUGGUAAAGUGCCUGUGGCUAGAAUGCC [A11U C23U G30C C42A], with 0. In the case of GGCAGAGCUCUACACAGCGUGGCAAAGUGGCUGUUUCUAGACUGCC [A11U G35U G36U], the self-cleavage worked out at 0.03. As for GGCAGAGCUCACCACAGCGUGGCAAGGUGGCUGUGGCUAAACUUCC [A12C A26G G40A G44U], the self-cleavage worked out at 0.01. As to GGCAGAGCUCUACACAGCGUGGCAAAUUGGCUGUGGGUAGACUGAC [A11U G27U C37G C45A], the self-cleavage amounted to 0. For GGCAGAGCUCUACACAGCGUGGCAAAGUGGCCUUGGCUAGACUGCC [A11U U32C G33U] the value was 0.06. In the case of GGCAGAGCUCUACACAUCGUGGCAAAAUGGCUGUGGCUAGACAGCC [A11U G17U G27A U43A], the self-cleavage worked out at 0.01. Then GGCAGAGCUCUACACAGCGUGGCAAAGUCGCUGUGGCGAUACUGCC [A11U G29C U38G G40U], with 0; and GGCAGAGCUCUACACAGAGGGCCAAAGUGGCUGCGCCUAGACAGCC [A11U C18A U20G G22C U34C G36C U43A], with 0. With GGCAGAGCUCUACACAGGGUUGCAAAGUGGCUGUGGCUAGAAUGCC [A11U C18G G21U C42A], the self-cleavage turned out to be 0.05. Then GGCAGAGCUCACCACUGCGUGGCACAGUAGCUGUGGCUAGAGUGCC [A12C A16U A25C G29A C42G], with 0.04; and GGCAGAGCUCUACACAACGUGGCAAAGUGGCUGUGGCUAGACUGUC [A11U G17A C45U], with 0.02; and GGCAGAGCUCUACACAGCGUGGCAAAGUGCCUGUGGCUAGACUGGC [A11U G30C C45G], with 0.02.

For GGCAGAGCUCUAAACAGCGUGCCAAAGUGGCUGUGGCUAGACUGCC [A11U C13A G22C], the self-cleavage amounted to 0.02. For GGCAGAGCUCACCCCAGCGUGGCAAAGUGGCUGUGGCUAGACUACC [A12C A14C G44A], the self-cleavage is 0.04.

GGCAGAGCUCUACACAGCGUCGCAACGUGGCUGUGGCUAGACUACC [A11U G21C A26C G44A]: the self-cleavage is 0.02. GGCAGAGCUCUACACAGAGUGGCAAAGUGGCUGUCGAUAGACUGCC [A11U C18A G35C C37A]: the self-cleavage came to 0.02. Then GGCAGAGCUCACCACAGCGUGGCAAAGUGGCUGUGGCUAGGUGGCC [A12C A41G C42U U43G], with 0.01.

For GGCAGAGCUCACCACCGCGGGACAAAGUGGCUGUGGCUAGACUGCC [A12C A16C U20G G22A], the self-cleavage worked out at 0.01.
